Test results reported in PubChem BioAssay AID493208 (National Center for Advancing Translational Sciences (NCATS), 2011).
About 340 (0.77%) of roughly 44,000 compounds were called active. Roughly 5% stayed inconclusive and do not appear here. The call rests on the fitted dose curve; in most records, active means well fitted inhibition curve with a large enough effect; inconclusive means small, poorly fitted or top-dose-only effect; inactive means flat fitted curve, though single readings scatter. This is one part of the list.

Assay: Acumen qHTS Assay for Inhibitors of the mTORC1 Signaling Pathway in MEF (Tsc2-/-, p53-/-) Cells: Sytravon; further: nearly all actives have a fitted effect of over 50% in size;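 on activity change, negative = inhibition: plate controls were DMSO for no effect and rapamycin for full effect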
Details: phospho-rpS6 immunofluorescence/PI, 24 h; series mostly up to 38.3 µM; activity change, negative = inhibition: at the top concentration
Excerpt: NIH Molecular Libraries Probe Production Centers Network [MLPCN] NIH Chemical Genomics Center [NCGC] MLPCN Grant: NS059428-01 Assay Submitter (PI): Blenis, John; Hoffman, Greg; Harvard University NCGC Assay Overview: The mammalian target of rapamycin (mTOR) is an intracellular serine/threonine kinase Aberrant regulation of mTOR signaling plays a causative role in a number of human diseases, including cancer, benign tumors such as lymphangioleiomyomatosis (LAM) and Tuberous Sclerosis Complex (TSC), and metabolic diseases such as diabetes and obesity. This project aims to identify inhibitors of ribosomal protein S6 (rpS6) phosphorylation. The phosphorylation of rpS6 is a key event downstream of mTOR activation. The assay uses a phospho-specific antibody of phospho-rpS6 to detect inhibitors of mTOR activation. Mutations in the Tsc1 and Tsc2 genes are the underlying genetic lesions responsible for TSC, causing constitutive activation of the mTORC1 pathway and leading to profound effects on cell metabolism. Aberrant metabolism in cancer has recently received significant attention as a target to develop therapeutic agents in the treatment of cancer.1 As Tsc2-/- cells have lost the ability to respond to energy and growth factor deprivation, these cells are unable to properly down regulate cellular biosynthetic processes in response to metabolic stress, and are thus extremely sensitive to glucose deprivation-induced death.2 A central goal of this project is to explore the unique cell survival and metabolic properties of cells with Tsc1 or Tsc2 by screening for compounds that selectively target the Tsc2-/- MEFs by screening both Tsc2-/- and WT MEF cell lines. We hope to better understand these aspects of TSC physiology in order to exploit them for therapeutic benefit.
NCGC Acumen Assay Protocol Summary: For quantitative high throughput analysis of mTORC1 signaling, we developed a cell-based assay for immuno-fluorescence based detection of rpS6 phosphorylation on the Acumen Explorer that will be used a platform for the primary small molecule screen. Mouse embryonic fibroblasts (MEFs) are cultured in 1536-well plates using DMEM + 10% FBS. Twenty-four hrs after plating, test compounds (solubilized in DMSO) are delivered and incubated with the cells for 24 hrs at 37 degree Celsius. Following the incubation, media with compound is aspirated and the cells are fixed in 4% paraformaldehyde (PFA) containing PBS + 0.2% TX-100. Next, PFA is aspirated, cells are washed two times with PBS plus 0.2% TX-100 and the cells are blocked for 1 hr at room temperature (blocking buffer: LiCOR Blocking Buffer plus 0.2% TX-100). […] Cells are washed two times with PBS plus 0.2% TX-100, and stained with 10 uM propidium iodide (PI) for 20-25 minutes for cell number measurement (1:500 dilution of Hoescht staining is also added for IN Cell imaging). The plates are scanned on the Acumen Explorer laser scanning instrument (TTP Labtech) using the 488nm laser for simultaneous excitation of the Alexa-488 and PI. […] The normalized phospho-S6 staining is calculated as the ratio of the integrated Alexa 488 intensity divided by the integrated PI intensity for the single concentration rapamycin control (7.5 nM) and DMSO columns. […] Inhibition of the pathway is defined based on the normalized phospho-S6 intensity in rapamycin treated cells. Active cells are defined as those with a normalized phospho-S6 staining above this threshold, and each treatment is reported as the % positive cells in the well, where thresholds are defined by selecting wells with the highest and lowest signal and differentiating between the % non-active and % active populations. In addition to the pathway specific phospho-S6 endpoint, the number of PI stained cells from the Acumen is recorded as a measure of cell viability. The primary screen was performed with a MEF cell line in a defined genetic background, Tsc2-/-, p53-/- cell line stably transfected with an empty vector control (Tsc2-/- MEF).
Potency means the concentration at half of the fitted maximal effect.

Activity change, negative = inhibition, inactive:
COc1ccc(OC)c(NC(=O)N2CCC3(CC2)Oc2ccccc2C(=O)N3Cc2ccccc2F)c1 -13.7%, CCN1C(=O)C2(c3ccccc31)c1c(oc3ccccc3c1=O)C(=O)N2CCOC (stereo unspecified) -7.81%, Cc1ccc(NC(=O)c2nc(S(C)(=O)=O)ncc2N(Cc2ccco2)Cc2ccco2)cc1 1.98%, CN(Cc1ccccc1)c1nc2c(S(=O)(=O)c3ccccc3)nnn2c2ccsc12 4.8%, Cc1ccc(OCCSc2nc3ccccc3n2CCC(=O)O)cc1 -0.313%, Cc1cc(C)cc(OCC(=O)N(Cc2ccco2)Cc2ccccc2Cl)c1 -27.3%, Cc1c(C(=O)Nc2ccccc2F)sc2nc3n(c(=O)c12)CCC3 7.79%, Cc1ccc(NC(=O)Cn2c(=O)n(CC(=O)NCCc3ccccc3)c(=O)c3ccccc32)cc1 4.74%, CC1CCc2nc3ncn(Cc4cccc(F)c4)c(=O)c3cc2C1 (stereo unspecified) 3.73%, COc1ccc(C)cc1-n1c(SCC(=O)NCc2ccco2)nc2c([nH]c3ccccc32)c1=O -9.51%, COc1ccc(CNC(=O)CCc2c(C)nc3c4cccnc4nn3c2C)cc1 13.9%, COc1ccc(CC(=O)Nc2nnc3n2CCS3)cc1OC -0.0554%, CCc1ccccc1NC(=O)Cn1nnc(C(=O)NCc2cccc(OC)c2)c1N -1.09%, CCCCN(CC)CCCNC(=O)c1nn(-c2ccc(OC)cc2)c(=O)c2c1c1ccccc1n2C -1.13%, CNC(=O)C1CCC(Cn2c(=O)c3sccc3n(CC(=O)Nc3ccccc3)c2=O)CC1 (stereo unspecified) -5.14%, O=C(Nc1ncc(Cc2ccccc2Cl)s1)c1ccc2c(c1)CC(c1ccccc1)OC2=O (stereo unspecified) 2.55%, Cc1ccc(CCNC(=O)CCCn2c(=O)c3cccn3c3ccc(F)cc32)cc1 4.81%, CCCCN(CC)CCCNC(=O)c1sc2nc3n(c(=O)c2c1C)CCCCC3 6.69%, O=C(CN1C(=O)COc2ccc(Cl)cc21)Nc1cccc(C(=O)O)c1 -0.755%, COCCNC(=O)c1cc(-c2cccc(Cl)c2)on1 -4.89%, COc1cc2[nH]c(=O)n(CCCC(=O)N(C)Cc3ccccc3)c(=O)c2cc1OC -11.7%, CCOC(=O)c1ccc(N2C(=O)c3n[nH]c(C)c3C2c2ccc(CC)cc2)cc1 (stereo unspecified) 6.89%, CCc1ccccc1NC(=O)Cn1nc(C)c2nn(-c3ccc(Cl)cc3)c(C)c2c1=O -20.6%, CCc1ccc(S(=O)(=O)c2cn(C)c3ccc(C)cc3c2=O)cc1 -7.92%, Cc1ccc(NC(=O)Cn2cc(S(=O)(=O)Cc3ccccc3)c3ccccc32)cc1C -13.7%, COC(=O)c1cc2occc2n1Cc1nc(-c2ccc(Cl)cc2)oc1C -4.37%, Cc1ccc(-n2nc(C(=O)N(C)c3ccccc3Cl)c3c4ccccc4n(C)c3c2=O)cc1 0.0235%, CN(C)S(=O)(=O)N(CC(=O)NCCSCc1ccc(Cl)cc1Cl)c1ccccc1 0.355%, CCOC(=O)C(Cc1ccccc1)NC(=O)Cn1nnc(-c2ccc(C)cc2)n1 (stereo unspecified) -10.5%, CSc1ccc(CCNC(=O)C2CCCN(S(=O)(=O)N(C)c3ccc(F)cc3)C2)cc1 (stereo unspecified) -22.4%, COc1ccc(NC(=O)CN2C(=O)C(c3ccccc3)=NC23CCC(C)CC3)cc1Cl (stereo unspecified) -6.64%, Cc1cccn2c(=O)cc(COc3cccc(NC(=O)Nc4cccc(Cl)c4)c3)nc12 -9.72%, COc1ccc(-n2ccnc(NCCc3ccc(S(N)(=O)=O)cc3)c2=O)cc1Cl 2.49%, O=C1Cc2cc(S(=O)(=O)Nc3cccc(C(F)(F)F)c3)cc3c2N1CCC3 -0.236%, COc1ccc(C(C)C)cc1S(=O)(=O)NCCc1c(C)[nH]c2c(Cl)cccc12 -24%, C[C@H](NC(=O)OC(C)(C)C)c1nnc(SCc2ccc(Cl)cc2Cl)o1 -8.91%, CC(C)c1ccc(NC(=O)[C@H]2O[C@@H]3OC(C)(C)O[C@@H]3[C@H]3OC(C)(C)O[C@H]32)cc1 -6.52%, CCN(CC)c1ccc2nc3c(=O)n(C)c(=O)n(C)c3nc2c1 -6.46%, Cc1nn(CC(=O)N2CCN(c3ccccc3F)CC2)c(=O)c2cccn12 0%, Cc1cc(OC(C)C(=O)N(Cc2ccco2)Cc2ccco2)cc(C)c1Cl (stereo unspecified) -3.19%, CCn1nc(C)c(CCN(C)C(=O)Nc2cc(Cl)c(OC)cc2OC)c1C 0%, CCN(Cc1ccccc1)C(=O)Cn1c(=O)cc(C)c2c(C)nn(-c3cccc(F)c3)c21 -20.3%, O=C(CSc1oc(-c2ccc(F)cc2)nc1S(=O)(=O)c1ccccc1)c1ccc(Cl)cc1 -19.9%, CC(C)c1nn2c(=O)cc(COC(=O)c3cccc(NC(=O)CCc4ccccc4)c3)nc2s1 9.18%, CCOc1ccc(-c2nnc(SCC(=O)NC3CCCCC3)nc2-c2ccc(OCC)c(OC)c2)cc1OC -4.12%, CCc1ccc2occ(CC(=O)Nc3nnc(SC)s3)c2c1 1.57%, CC(C)c1ccc(NC(=O)C2CCC(CNS(=O)(=O)c3ccc4c(c3)CCCC(=O)N4)CC2)cc1 (stereo unspecified) 5.05%, COc1ccc(CNC(=O)CCn2c(=O)c3cccn3c3ccc(F)cc32)cc1OC -6.98%, CCN1C(=O)c2ccccc2S(=O)(=O)c2ccc(C(=O)NCc3ccc(C)cc3)cc21 -1.01%, CCOC(=O)c1[nH]c(C)c(CCC(=O)N2CCN(c3ccc(Cl)cc3)CC2)c1C -1.35%, CCS(=O)(=O)c1nc(S(=O)(=O)c2ccc(Cl)cc2)c(NCc2ccc(Cl)cc2)s1 -4.55%, COc1ccc(-c2ccc(=O)n(CC(=O)Nc3ccc(Br)cc3F)n2)cc1 -0.233%, Cn1c(=O)c2c(-c3ccccc3)n(-c3cccc(C#N)c3)cc2n(C)c1=O -3.99%, O=C(O)c1ccc(Nc2ncnc3scc(-c4ccccc4)c23)cc1 0.363%, CCc1ccc2nc(N(Cc3cccnc3)C(=O)Cc3ccccc3)sc2c1 0.799%, COc1ccc(Cc2c(C)nn(-c3nc(C)c(C(=O)Nc4cccc(C(C)=O)c4)s3)c2C)cc1 -1.07%, CCC(C(=O)NCc1ccccc1Cl)n1c(=O)c2cccn2c2ccccc21 (stereo unspecified) -2.73%, COC(=O)c1cc(OC)c(OC)cc1NC(=O)c1ccc2c(c1)CCN2S(C)(=O)=O 5.53%, Cc1ccc2c(c1)N(C(=O)c1ccc(F)cc1)C(C)(C)CC2(C)c1ccccc1 (stereo unspecified) -10.9%, O=C(NCc1ccccc1)c1c2c(nc3ccccc13)C(=O)N(C1CCCCC1)C2 -7.69%, CCc1ccccc1N1C(=O)N(Cc2cc(=O)n3ccccc3n2)c2ccccc2S1(=O)=O -1.02%, COc1ccc(S(=O)(=O)N(CCc2ccccc2)CC(=O)Nc2cc(Cl)ccc2C)cc1 -9.24%, CCCSc1nnc(NC(=O)c2cc(=O)c3ccccc3o2)s1 -1.35%, CCOC(=O)N1CCc2c(sc3c2c(=O)n(CCc2ccccc2)c(=O)n3CC(=O)Nc2ccccc2C)C1 -1.02%, NC(=O)c1c(NC(=O)CS(=O)(=O)c2ccc(Cl)cc2)sc2c1CCCC2 -17.7%, O=C(c1cccc(Cl)c1)N(Cc1cccc(F)c1)C1CCS(=O)(=O)C1 (stereo unspecified) 3.38%, COC(=O)c1cc2sccc2n1Cc1c(C)cc(C)cc1C -3.7%, COc1ccc(NC(=O)C2CCCN(S(=O)(=O)c3ccc4[nH]c(=O)ccc4c3)C2)cc1Cl (stereo unspecified) -6.25%, Cc1ccc(NC(=O)C2CCN(C(=O)c3sc4nc[nH]c(=O)c4c3C)CC2)cc1F 0.242%, Cc1ccc(-c2nn(CCC(=O)Nc3ccc(OC(F)(F)F)cc3)c(=O)c3ccccc23)cc1 -5.84%, CCOc1cccc(C(=O)N(Cc2ccc(C(C)C)cc2)C2CCS(=O)(=O)C2)c1 (stereo unspecified) 2.01%, COc1ccccc1C(=O)Nc1ccccc1OCc1cc(=O)n2cc(C)sc2n1 -12.9%, CCN1C(=O)C(Cc2nc3ccccc3c(=O)n2-c2cccc(C)c2)c2ccccc21 (stereo unspecified) 1.04%, Cc1ccccc1NC(=O)c1c(C)oc2ccc(O)c(CN(C)Cc3ccccc3)c12 -17.9%, Cc1ccc(-c2noc(-c3ccccc3OCC(=O)Nc3ccccc3[N+](=O)[O-])n2)cc1 0.844%, CC(C)Oc1ccc(C(=O)NCCc2csc(-c3cccc(F)c3)n2)cc1 -0.741%, O=C(Nc1ncc(Cc2ccc(F)cc2)s1)c1ccc2c(c1)CC(c1ccccc1)OC2=O (stereo unspecified) -2.42%, CCCCCn1c(CCCNC(=O)c2ccccc2)nc2ccccc21 3.24%, CCCC(=O)N1c2nc(-c3ccco3)nn2C2(CCCCC2)[C@@H]2CCCC[C@@H]21 -4.36%, Cc1nn(C)c2c1c(C(F)(F)F)cc(=O)n2CC(=O)Nc1ccc(F)cc1F 5.91%, Cc1nnc(N2CCC(C(=O)NC3CCC(C)CC3)CC2)c2nn(-c3ccc(Cl)cc3)c(C)c12 (stereo unspecified) -5%, Cc1ccccc1NC(=O)CSc1nccn1C 0.321%, Cc1cccc(N(C)C(=O)Cn2cnc3nc4c(cc3c2=O)CCCC4)c1 -7.83%, Cc1cc(C)c(NC(=O)C(C)n2nc(C)c3sc4ccccc4c3c2=O)c(C)c1 (stereo unspecified) 7.83%, COc1cccc(N2CC(NC(=O)c3cccs3)CC2=O)c1 (stereo unspecified) 0.506%, Cc1cc(Cl)ccc1NC(=O)C1CCCN(c2nnc(C)c3c(C)n(-c4ccccc4)nc23)C1 (stereo unspecified) -7.06%, COc1cccc(CNC(=O)CCc2c(C)nn(-c3ccc(N4CCCC4)nn3)c2C)c1 0.352%, CC(CCc1ccccc1)NC(=O)CSc1n[nH]c(-c2ccccc2Cl)n1 (stereo unspecified) -12.6%, COc1ccc(OC(=O)c2cn(-c3cccc(OC)c3)c(=O)c3ccccc23)cc1 -1.49%, O=S(=O)(NCC(c1ccco1)S(=O)(=O)c1cccs1)c1ccccc1 (stereo unspecified) -15.8%, Cc1ccc(OC(C)C(=O)N2CCN(CCc3ccccn3)CC2)cc1C (stereo unspecified) -8.96%, Cc1cccc(OCC(=O)Nc2ccc3nc(SCc4ccccc4)sc3c2)c1 -4.22%, Cc1nc2ccccc2n1CCc1nc2c3ccccc3nc(SCc3ccccc3F)n2n1 4.44%, CCc1ccc(CNC(=O)c2ccc(Cn3c(=O)c4cccn4c4cccnc43)cc2)cc1 -3.84%, CCCc1nnc(NC(=O)CSc2nnc3c4ccccc4n(CC)c3n2)s1 -1.46%

Potency, active:
Cc1ccc(S(=O)(=O)c2nnn3c2nc(NC2CCCCC2)c2sccc23)cc1C 7.36 µM
